Drawing on PubChem BioAssay AID1745853 (National Center for Advancing Translational Sciences (NCATS), 2022), this text covers activity change, negative = inhibition for 16 compounds.

The other results are listed elsewhere or left out. The main result of the screen is listed elsewhere. These columns were measured beside it and carry no call.

Assay in all cases: Primary Screen for Target Class Profiling of Small Molecule Inhibitors of Methyltransferases
The target in test [1] is Glycine N-methyltransferase (Homo sapiens) (UniProt Q14749). Conditions: purified enzyme, MTase-Glo SAH luminescence; measured here: GNMT inhibition; at 40 µM; stronger effect = lower value. Summed up:
(§1)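 Each enzyme was assayed with SAM and its substrate. SAH formation detected by MTase-Glo luminescence; single-point 40 uM screen[…].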

Test [2] has as its target Guanidinoacetate N-methyltransferase (Homo sapiens) (UniProt Q14353). The settings on record: purified enzyme, MTase-Glo SAH luminescence; measured here: GAMT inhibition; at 40 µM; stronger effect = lower value. Summed up:
as §1

Test [3] has as its target Histamine N-methyltransferase (Homo sapiens) (UniProt P50135). Conditions: purified enzyme, MTase-Glo SAH luminescence; measured here: HNMT inhibition; at 40 µM; stronger effect = lower value. In a few lines: as §1
The target of test [4] is Nicotinamide N-methyltransferase (Homo sapiens) (UniProt P40261). The settings on record: purified enzyme, MTase-Glo SAH luminescence; measured here: NNMT inhibition; at 40 µM; stronger effect = lower value. Summed up: as §1
The target of test [5] is Phenylethanolamine N-methyltransferase (Homo sapiens) (UniProt P11086). The settings on record: purified enzyme, MTase-Glo SAH luminescence; measured here: PNMT inhibition; at 40 µM; stronger effect = lower value. In a few lines:
as §1
On the % scale 0 is the no-effect control and ±100 the full control effect.

In the case of `NS(=O)(=O)c1cccc2c1c([N+](=O)[O-])cc1nc(O)c(O)nc12`, the activity change, negative = inhibition in test [1] is -14.1%; in test [2], 6.7%; in test [3], 0.481%; in test [4] it was -8.51%; in test [5] it was 1.7%.

As for `CN(C)CCN(Cc1ccc(-c2ccc(CNCCc3ccccc3)cc2)cc1)C(=O)CCC1CCCC1`, the activity change, negative = inhibition was -4.61% in test [1]; 13% in test [2]; -47.6% in test [3]; -45.8% in test [4]; -0.809% in test [5].

For the compound `CC(C)c1ccc(CN2CCCC3(CCN(S(C)(=O)=O)C3)C2=O)cc1` (configuration not stated), the activity change, negative = inhibition is -7.82% in test [1]; -7.72% in test [2]; -2.34% in test [3]; -18% in test [4]; -7.78% in test [5].

As to `Cc1cccc(N2CCN(C(=O)CCCc3nnc4n5nc(C)nc5c5ccccc5n34)CC2C)c1` (configuration not stated), the activity change, negative = inhibition in test [1] was -6.71%; in test [2], 0.433%; in test [3], 9.43%; in test [4] it was 8.46%; in test [5], 3.29%.

Take `CC(C)n1c(=O)c2ccc(C(=O)NC3CCCCC3)cc2n2c(=O)n(Cc3ccc(F)cc3Cl)nc12`: the activity change, negative = inhibition in test [1] amounted to 4.3%; in test [2], 0%; in test [3], 6%; in test [4], 1.03%; in test [5] it was 3.97%.

`COC(=O)c1ncn2c1C(=O)N(c1ccc(OC)c(Cl)c1)C(C)(C(=O)NCc1ccccc1)C2` (configuration not stated): the activity change, negative = inhibition in test [1] was found to be 4.24%; in test [2] it was 0%; in test [3], 7.34%; in test [4] it was 8.5%; in test [5], 8%.

On to `COc1cc([C@@H]2c3cc4c(cc3[C@H](O)C3COC(=O)[C@@H]32)OCO4)cc(OC)c1OC` (some centres not stated), for which the activity change, negative = inhibition in test [1] is -4.17%; in test [2], 11.6%; in test [3] it was 5.16%; in test [4], -2.39%; in test [5] it was 12.3%.

In the case of `CCCN1C(=O)c2c(C(=O)NCc3ccc(OC)cc3OC)ncn2CC1(C)C(=O)NCc1ccc(C)cc1` (configuration not stated), the activity change, negative = inhibition in test [1] was found to be 1.6%; in test [2], 2.77%; in test [3], 4.08%; in test [4], 1.29%; in test [5], 4.99%.

Regarding `CC(C)(C)c1ccc(CN2CCN(C(c3ccccc3)c3ccc(Cl)cc3)CC2)cc1` (configuration not stated), the activity change, negative = inhibition in test [1] was -0.625%; in test [2], -34.9%; in test [3], 5.49%; in test [4], -37.1%; in test [5] it was -4.18%.

As for `CCCn1c(=O)c2ccc(C(=O)NC(C)CC)cc2n2c(SCC(=O)Nc3ccccc3C)nnc12` (configuration not stated), the activity change, negative = inhibition in test [1] was 4.48%; in test [2], 0%; in test [3], 8.99%; in test [4], -0.575%; in test [5], 4.57%.

As to `O=C(c1ccoc1)N1CCC(Cc2nc(C3CC3)n[nH]2)C1` (configuration not stated), the activity change, negative = inhibition in test [1] is -1.69%; in test [2] it was 2.28%; in test [3], 2.4%; in test [4] it was -0.137%; in test [5], 18.5%.

Consider `COc1ccc(C[C@H](N)C(=O)N[C@@H]2[C@H](O)[C@H](n3cnc4c(N(C)C)ncnc43)O[C@@H]2CO)cc1`, for which the activity change, negative = inhibition in test [1] amounted to 6.1%; in test [3] it was 7.66%.

In the case of `C=C1C(=O)OC2C1CCC1(C)C(O)CCC(=C)C21` (configuration not stated), the activity change, negative = inhibition in test [1] is -5.27%; in test [2], 2.08%; in test [3], 10.9%; in test [4], -7.55%; in test [5], 5.85%.

With `COc1ccc(C(=O)N2CCC3(CC2)OCC(C(=O)NC2CC2)N3C(=O)c2cccc(C)c2)cc1` (configuration not stated), the activity change, negative = inhibition in test [1] was -3.27%; in test [2], 1.17%; in test [3], -0.491%; in test [4], -4.85%; in test [5], 10.8%.

As to `Cc1ccccc1CN1C(=O)c2nc3ccccc3n2CC1(C)C(=O)NC1CCCCCC1` (configuration not stated), the activity change, negative = inhibition stood at 6.26% in test [1]; 4.42% in test [2]; 8.03% in test [3]; 12.1% in test [4]; 2.86% in test [5].

Take `CCN(C(=O)Cn1c(=O)oc2cc(S(=O)(=O)N3CCCC3)ccc21)c1cccc(C)c1`: the activity change, negative = inhibition was -4.04% in test [1]; 0.712% in test [2]; 3.8% in test [3]; 1.7% in test [4]; -2.6% in test [5].
